# Measurements: the supplement of paper PMC8728848
# This is one part of the list.
# B1: MAL-II (Maackia amurensis), P93248 (protein)
# chain: ATSNSKPTQVLLATFLTFFFLLLNNVNSSDELSFTINNFVPNEADLLFQGEASVSSTGVLQLTRVENGQPQQYSVGRALYAAPVRIWDNTTGSVASFSTSFTFVVKAPNPTITSDGLAFFLAPPDSQIPSGRVSKYLGLFNNSNSDSSNQIVAVEFDTYFGHSYDPWDPNYRHIGIDVNGIESIKTVQWDWINGGVAFATITYLAPNKTLIASLVYPSNQTSFIVAASVDLKEILPEWVRVGFSAATGYPTQVETHDVLSWSFTSTLEANSDAATENNVHIARYTA
# Legend:
# Test in all cases: glycan array binding signal (z-score within array); higher = stronger binding
# Conditions in all cases: glycan notation: IUPAC condensed, linker removed
# [1] = molecular target: Neu5Ac(a2-3)Gal(b1-4)GlcNAc(b1-6)[Neu5Ac(a2-3)Gal(b1-3)]GalNAc
# Summary of the method: (§1)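 Glycan array binding is given as a within-array Z-score, which can be read as non-binding when negative. The arrays, 3228 of them, came from the Consortium for Functional Glycomics database and were retained only where the protein sequence was available. Z-scores were averaged across arrays of the same protein sequence at different concentrations or buffers and across linkers.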
# [2] = molecular target: Neu5Ac(a2-3)Gal(b1-4)GlcNAc6S
# Summary of the method: as §1
# [3] = molecular target: Neu5Ac(a2-3)Gal(b1-4)[Fuc(a1-3)]GlcNAc
# Summary of the method: as §1
# [4] = molecular target: Neu5Ac(a2-3)Gal(b1-4)[Fuc(a1-3)]GlcNAc(b1-2)Man
# Summary of the method: as §1
# [5] = molecular target: Neu5Ac(a2-3)Gal(b1-4)[Fuc(a1-3)]GlcNAc(b1-3)Gal
# Summary of the method: as §1
# [6] = molecular target: Neu5Ac(a2-3)Gal(b1-4)[Fuc(a1-3)]GlcNAc(b1-3)Gal(b1-4)GlcNAc
# Summary of the method: as §1
# [7] = molecular target: Neu5Ac(a2-3)Gal(b1-4)[Fuc(a1-3)]GlcNAc(b1-3)Gal(b1-4)[Fuc(a1-3)]GlcNAc(b1-3)Gal(b1-4)[Fuc(a1-3)]GlcNAc
# Summary of the method: as §1
# [8] = molecular target: Neu5Ac(a2-3)Gal(b1-4)[Fuc(a1-3)]GlcNAc(b1-3)GalNAc
# Summary of the method: as §1
# [9] = molecular target: Neu5Ac(a2-3)Gal(b1-4)[Fuc(a1-3)]GlcNAc(b1-6)[Gal(b1-3)]GalNAc
# Summary of the method: as §1
# [10] = molecular target: Neu5Ac(a2-3)Gal(b1-4)[Fuc(a1-3)]GlcNAc(b1-6)[Neu5Ac(a2-3)Gal(b1-3)]GalNAc
# Summary of the method: as §1
# [11] = molecular target: Neu5Ac(a2-3)Gal(b1-4)[Fuc(a1-3)]GlcNAc6S
# Summary of the method: as §1
# [12] = molecular target: Neu5Ac(a2-3)Gal6S(b1-4)GlcNAc
# Summary of the method: as §1
# [13] = molecular target: Neu5Ac(a2-3)Gal6S(b1-4)[Fuc(a1-3)]GlcNAc
# Summary of the method: as §1
# [14] = molecular target: Neu5Ac(a2-3)GalNAc
# Summary of the method: as §1
# [15] = molecular target: Neu5Ac(a2-3)GalNAc(b1-4)GlcNAc
# Summary of the method: as §1
# [16] = molecular target: Neu5Ac(a2-3)[GalNAc(b1-4)]Gal(b1-4)Glc
# Summary of the method: as §1
# [17] = molecular target: Neu5Ac(a2-3)[GalNAc(b1-4)]Gal(b1-4)GlcNAc
# Summary of the method: as §1
# [18] = molecular target: Neu5Ac(a2-3)[GalNAc(b1-4)]Gal(b1-4)GlcNAc(b1-3)GalNAc
# Summary of the method: as §1
# [19] = molecular target: Neu5Ac(a2-3)[Neu5Ac(a2-6)]GalNAc
# Summary of the method: as §1
# [20] = molecular target: Neu5Ac(a2-6)Gal
# Summary of the method: as §1
# [21] = molecular target: Neu5Ac(a2-6)Gal(b1-3)GlcNAc(b1-3)[Gal(b1-4)GlcNAc(b1-6)]Gal(b1-4)Glc
# Summary of the method: as §1
# [22] = molecular target: Neu5Ac(a2-6)Gal(b1-4)Glc
# Summary of the method: as §1
# [23] = molecular target: Neu5Ac(a2-6)Gal(b1-4)GlcNAc
# Summary of the method: as §1
# [24] = molecular target: Neu5Ac(a2-6)Gal(b1-4)GlcNAc(b1-2)Man
# Summary of the method: as §1
# [25] = molecular target: Neu5Ac(a2-6)Gal(b1-4)GlcNAc(b1-2)Man(a1-3)Man(b1-4)GlcNAc(b1-4)GlcNAc
# Summary of the method: as §1
# [26] = molecular target: Neu5Ac(a2-6)Gal(b1-4)GlcNAc(b1-2)Man(a1-3)[Gal(b1-4)GlcNAc(b1-2)Man(a1-6)]Man(b1-4)GlcNAc(b1-4)GlcNAc
# Summary of the method: as §1
# [27] = molecular target: Neu5Ac(a2-6)Gal(b1-4)GlcNAc(b1-2)Man(a1-3)[GlcNAc(b1-2)Man(a1-6)]Man(b1-4)GlcNAc(b1-4)GlcNAc
# Summary of the method: as §1
# [28] = molecular target: Neu5Ac(a2-6)Gal(b1-4)GlcNAc(b1-2)Man(a1-3)[GlcNAc(b1-2)Man(b1-4)GlcNAc(b1-2)Man(a1-6)]Man(b1-4)GlcNAc(b1-4)GlcNAc
# Summary of the method: as §1
# [29] = molecular target: Neu5Ac(a2-6)Gal(b1-4)GlcNAc(b1-2)Man(a1-3)[GlcNAc(b1-4)][Neu5Ac(a2-6)Gal(b1-4)GlcNAc(b1-2)Man(a1-6)]Man(b1-4)GlcNAc(b1-4)GlcNAc
# Summary of the method: as §1
# [30] = molecular target: Neu5Ac(a2-6)Gal(b1-4)GlcNAc(b1-2)Man(a1-3)[Man(a1-6)]Man(b1-4)GlcNAc(b1-4)GlcNAc
# Summary of the method: as §1
# [31] = molecular target: Neu5Ac(a2-6)Gal(b1-4)GlcNAc(b1-2)Man(a1-3)[Neu5Ac(a2-3)Gal(b1-4)GlcNAc(b1-2)Man(a1-6)]Man(b1-4)GlcNAc(b1-4)GlcNAc
# Summary of the method: as §1
# [32] = molecular target: Neu5Ac(a2-6)Gal(b1-4)GlcNAc(b1-2)Man(a1-3)[Neu5Ac(a2-6)Gal(b1-4)GlcNAc(b1-2)Man(a1-6)]Man(b1-4)GlcNAc(b1-4)GlcNAc
# Summary of the method: as §1
# [33] = molecular target: Neu5Ac(a2-6)Gal(b1-4)GlcNAc(b1-2)Man(a1-3)[Neu5Ac(a2-6)Gal(b1-4)GlcNAc(b1-2)Man(a1-6)]Man(b1-4)GlcNAc(b1-4)[Fuc(a1-6)]GlcNAc
# Summary of the method: as §1
# [34] = molecular target: Neu5Ac(a2-6)Gal(b1-4)GlcNAc(b1-2)Man(a1-6)Man(b1-4)GlcNAc(b1-4)GlcNAc
# Summary of the method: as §1
# [35] = molecular target: Neu5Ac(a2-6)Gal(b1-4)GlcNAc(b1-2)Man(a1-6)[Gal(b1-4)GlcNAc(b1-2)Man(a1-3)]Man(b1-4)GlcNAc(b1-4)GlcNAc
# Summary of the method: as §1
# [36] = molecular target: Neu5Ac(a2-6)Gal(b1-4)GlcNAc(b1-2)Man(a1-6)[GlcNAc(b1-2)Man(a1-3)]Man(b1-4)GlcNAc(b1-4)GlcNAc
# Summary of the method: as §1
# [37] = molecular target: Neu5Ac(a2-6)Gal(b1-4)GlcNAc(b1-2)Man(a1-6)[Man(a1-3)]Man(b1-4)GlcNAc(b1-4)GlcNAc
# Summary of the method: as §1
# [38] = molecular target: Neu5Ac(a2-6)Gal(b1-4)GlcNAc(b1-2)[Neu5Ac(a2-6)Gal(b1-4)GlcNAc(b1-4)]Man(a1-3)[GlcNAc(b1-4)][Neu5Ac(a2-6)Gal(b1-4)GlcNAc(b1-2)[Neu5Ac(a2-6)Gal(b1-4)GlcNAc(b1-6)]Man(a1-6)]Man(b1-4)GlcNAc(b1-4)GlcNAc
# Summary of the method: as §1
binder,measurement,setting,value
B1,glycan array binding signal (z-score),[1],3.13
same,glycan array binding signal (z-score),[2],-0.215
same,glycan array binding signal (z-score),[3],-0.189
same,glycan array binding signal (z-score),[4],-0.201
same,glycan array binding signal (z-score),[5],-0.237
same,glycan array binding signal (z-score),[6],-0.186
same,glycan array binding signal (z-score),[7],-0.182
same,glycan array binding signal (z-score),[8],-0.118
same,glycan array binding signal (z-score),[9],0.76
same,glycan array binding signal (z-score),[10],0.889
same,glycan array binding signal (z-score),[11],-0.218
same,glycan array binding signal (z-score),[12],-0.224
same,glycan array binding signal (z-score),[13],-0.22
same,glycan array binding signal (z-score),[14],-0.313
same,glycan array binding signal (z-score),[15],-0.209
same,glycan array binding signal (z-score),[16],-0.247
same,glycan array binding signal (z-score),[17],-0.213
same,glycan array binding signal (z-score),[18],0.272
same,glycan array binding signal (z-score),[19],-0.272
same,glycan array binding signal (z-score),[20],-0.234
same,glycan array binding signal (z-score),[21],-0.18
same,glycan array binding signal (z-score),[22],-0.184
same,glycan array binding signal (z-score),[23],-0.142
same,glycan array binding signal (z-score),[24],-0.102
same,glycan array binding signal (z-score),[25],-0.2
same,glycan array binding signal (z-score),[26],-0.171
same,glycan array binding signal (z-score),[27],-0.15
same,glycan array binding signal (z-score),[28],-0.187
same,glycan array binding signal (z-score),[29],-0.283
same,glycan array binding signal (z-score),[30],-0.172
same,glycan array binding signal (z-score),[31],-0.233
same,glycan array binding signal (z-score),[32],-0.212
same,glycan array binding signal (z-score),[33],-0.089
same,glycan array binding signal (z-score),[34],-0.25
same,glycan array binding signal (z-score),[35],-0.26
same,glycan array binding signal (z-score),[36],-0.214
same,glycan array binding signal (z-score),[37],-0.223
same,glycan array binding signal (z-score),[38],-0.112
